Results: PubChem BioAssay AID485294 (National Center for Advancing Translational Sciences (NCATS), 2010)
The whole screen tested about 370,000 compounds, of which about 150 (0.041%) were called active. This list was built around the results that the source calls inconclusive (neither active nor inactive); the mix of calls is not that of the screen. Calls come from the whole dose curve; as a rule, active = well fitted inhibition curve with a large enough effect; inconclusive = small, poorly fitted or top-dose-only effect; inactive = flat fitted curve, though single readings scatter. Potencies of inconclusive entries are left out as doubtful fits.

These compounds were tested against Beta-lactamase (Escherichia coli (strain K12)) (UniProt P00811) (assay: qHTS Inhibitors of AmpC Beta-Lactamase (assay with detergent)). Conditions: AmpC hydrolysis of nitrocefin, absorbance 480 nm, 0.01% Triton; activity change, negative = inhibition: at 114 µM (top of the series).
How it was run: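 AmpC (5.3 nM in the dispensed reagent) in 20 mM phosphate pH 7.0 with 0.01% (detergent screen) or 0.0001% Triton X-100 was preincubated with compounds for 15 min at room temperature. Nitrocefin was then added from an 800 uM solution, and hydrolysis was followed at 480 nm.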
Note: nearly all actives have a fitted effect of over 25% in size.
Potency is the fitted concentration of half-maximal effect; tags give direction and shape of the fitted curve.
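Throughout, for activity change, negative = inhibition: 0% = no-compound wells and -100% = no-enzyme wells.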

UniProt P00811, sequence (P00811 whole entry, looked up): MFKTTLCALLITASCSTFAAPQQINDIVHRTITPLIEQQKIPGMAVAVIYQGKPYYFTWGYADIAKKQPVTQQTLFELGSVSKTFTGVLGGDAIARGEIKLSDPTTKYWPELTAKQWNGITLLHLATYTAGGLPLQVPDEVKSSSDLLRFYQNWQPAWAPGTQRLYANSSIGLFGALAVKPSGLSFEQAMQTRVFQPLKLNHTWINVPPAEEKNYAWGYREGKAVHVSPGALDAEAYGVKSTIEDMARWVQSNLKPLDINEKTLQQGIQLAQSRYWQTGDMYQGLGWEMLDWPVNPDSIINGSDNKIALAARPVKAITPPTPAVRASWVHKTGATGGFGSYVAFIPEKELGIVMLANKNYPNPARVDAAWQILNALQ

Row | SMILES | Potency | activity change, negative = inhibition
1 | CCSc1nc(O)c(C2OC(=O)c3c2ccc(OC)c3OC)c(=O)n1CC (stereo not given) | inconclusive [inhibitor, full curve] | –
2 | CCOC(=O)C1=C(CSc2nccn2C)NC(=O)NC1c1ccc2c(c1)OCO2 (stereo not given) | inconclusive [inhibitor, full curve] | –
3 | CCOC(=O)C12CNC(=O)C(C(=O)OCC)(CNC1=O)C2 | inconclusive [inhibitor, partial curve, poor fit] | –
4 | O=C(CCN1CCN(C(c2ccccc2)c2ccccc2)CC1)N/N=C/c1ccc(O)cc1O | inconclusive [inhibitor, full curve, poor fit] | –
5 | Cc1cccc(N2C(=O)N3[C@H](c4ccc(Cl)cc4)[C@@H]4C(=O)N(C5CCCCC5)C(=O)[C@@H]4[C@]3(Cc3ccc(Cl)cc3)C2=O)c1 | inactive | –
6 | O=C(c1cc(Br)ccc1Cl)N1CCN(c2ccc(N3CCOCC3)nn2)CC1 | inconclusive [inhibitor, full curve, poor fit] | –
7 | CCCSc1nnc(-c2c[nH]c3ccccc23)n1C | inconclusive [inhibitor, full curve, poor fit] | –
8 | CC1=C(C(=O)OCc2ccc(C)cc2)C(c2ccc(O)c([N+](=O)[O-])c2)NC(=O)N1 (stereo not given) | inconclusive [inhibitor, partial curve] | –
9 | Cc1ccc(NC(=O)c2cccc(NC(=O)/C=C/c3ccco3)c2)cc1C | inconclusive [inhibitor, partial curve] | –
10 | CCOC(=O)c1cnc2c(Cl)cccc2c1NCCN1CCOCC1 | inconclusive [inhibitor, full curve, poor fit] | –
11 | COC(=O)CCSc1nc2sc3c(c2c(=O)n1Cc1ccccc1)CCC(C(C)(C)C)C3 (stereo not given) | inactive | –
12 | Cc1sc2nc(CN3CCCC3)nc(N3CCN(S(=O)(=O)c4cccs4)CC3)c2c1C | inconclusive [inhibitor, partial curve] | –
13 | COc1cc(C(=O)NNC(=S)NCc2ccco2)cc(OC)c1OC | inconclusive [inhibitor, full curve] | –
14 | O=C(Nc1ccc(F)cc1)Nc1nnc(Cc2ccccc2)s1 | inactive | –
15 | O=[N+]([O-])c1ccccc1SNc1ccccn1 | inconclusive [inhibitor, partial curve] | –
16 | Cc1cc2c(c(=O)n1Cc1cccnc1)C(Cc1ccccc1)C(C#N)=C(N)O2 (stereo not given) | inactive | –
17 | Cc1c(C(=O)N2CCN(C3CCS(=O)(=O)C3)CC2)oc2ccc(Cl)cc12 (stereo not given) | inconclusive [inhibitor, full curve, poor fit] | –
18 | Cc1[nH]c2ccccc2c1C(=O)C(=O)Nc1ccc2c(c1)OCCO2 | inactive | –
19 | C=CCNc1nc(N2CCCCC2)c(C#N)c2c1CN(Cc1ccccc1)CC2 | inconclusive [inhibitor, full curve, poor fit] | –
20 | CCN(CC(=O)NCC1CCCO1)S(=O)(=O)c1ccc2ccccc2c1 (stereo not given) | inconclusive [inhibitor, full curve, poor fit] | –
21 | COc1ccc(CN2CCC(N3CC(C)OC(C)C3)CC2)c(OC)c1OC (stereo not given) | inconclusive [inhibitor, full curve, poor fit] | –
22 | COc1cccc(N(C(=O)CNC(=O)c2ccco2)C(C(=O)NC2CCCCC2)c2ccncc2)c1 (stereo not given) | inconclusive [inhibitor, single point] | –

Row | SMILES | Potency | activity change, negative = inhibition
23 | CCOC(=O)c1[nH]cnc1N=Nc1c(O)ccc2ccccc12 | inconclusive [inhibitor, full curve, poor fit] | –
24 | CC/C(=N\NC(=O)c1ccccc1Cl)c1ccc(Br)s1 | inconclusive [inhibitor, single point] | –
25 | CCc1ccc(OCC(=O)NNC(=O)c2cnccn2)c(Br)c1 | inactive | –
26 | CC(C)OCCCNc1nc2c(-c3ccccc3)nnn2c2ccccc12 | inconclusive [inhibitor, full curve, poor fit] | –
27 | CCC(C)N(CCNC(=O)CC1Oc2ccccc2NC1=O)C1CCCCC1 (stereo not given) | inconclusive [inhibitor, partial curve, poor fit] | –
28 | O=C1C=C2C=C[C@@H]3CC2(O1)[C@H]1CCCCN31 | inconclusive [inhibitor, full curve, poor fit] | –
29 | CCOC(=O)c1c(OCC)[nH]c2c1cc(O)c1ccccc12 | inactive | –
30 | O=c1cc(CO)oc(C(Nc2cccc([N+](=O)[O-])c2)c2ccccn2)c1O (stereo not given) | inconclusive [inhibitor, partial curve, poor fit] | –
31 | O=C(CN1CCN(c2cccc(Cl)c2)CC1)NCc1ccccc1 | inactive | –
32 | CC1(C)CC(NC(=O)COc2ccc3ccccc3c2)CC(C)(C)N1 | inconclusive [inhibitor, full curve, poor fit] | –
33 | OCCN(CC#CC(O)(c1ccccc1)C1CCCC1)CCO (stereo not given) | inconclusive [inhibitor, full curve] | –
34 | Cn1cnc([N+](=O)[O-])c1SCC(O)CCl (stereo not given) | inconclusive [inhibitor, full curve] | –
35 | CCOc1ccc(C(=O)Nc2ccccc2N2CCCC2)cc1 | inconclusive [inhibitor, partial curve, poor fit] | –
36 | CCOc1ccccc1NC(=O)c1ccccc1NS(C)(=O)=O | inconclusive [inhibitor, full curve, poor fit] | –
37 | COC(=O)c1ccc(CNC(=O)C(C)N=C2NS(=O)(=O)c3ccccc32)cc1 (stereo not given) | inconclusive [inhibitor, full curve, poor fit] | –
38 | Cc1ccc(N2CCCn3c2nc2c3c(=O)n(CCN3CCOCC3)c(=O)n2C)cc1 | inconclusive [inhibitor, full curve] | –
39 | COc1cccc(-n2c(=O)c3c(C)c(C(=O)N(C)C)sc3n(Cc3ccc(F)cc3Cl)c2=O)c1 | inactive | –
40 | Cc1ccccc1-c1nc2ccccc2o1 | inconclusive [inhibitor, full curve, poor fit] | –
41 | CCCCn1nc2cc(C(=O)NCC34CC5CC(CC(C5)C3)C4)ccc2c1OC | inactive | –
42 | CCCN1C(=O)c2cc(C(=O)NCc3ccc(OC)cc3)ccc2C1O (stereo not given) | inconclusive [inhibitor, full curve, poor fit] | –
43 | COC(=O)C1C(O)C(C)C(O)C(C)/C=C\C=C(/C)C(=O)Nc2c(C)c(OC(C)=O)c3c(c2O)C(=O)C(C)=C2OCOC(=C23)/C(C)=C/C(C)(O)C(O)C(C)C1O (stereo not given) | inactive | –
44 | CCOc1ccc(NC(=O)CN(C)C(=O)c2cc(-c3ccncc3)nc3ccccc23)cc1OCC | inconclusive [inhibitor, partial curve] | –

Row | SMILES | Potency | activity change, negative = inhibition
45 | O=C(NCCN1CCCCC1)c1ccc(/C=N/O)nc1 | inconclusive [inhibitor, full curve, poor fit] | –
46 | CN(C)CCN1C(=O)c2oc3ccccc3c(=O)c2C1c1ccccc1 (stereo not given) | inconclusive [inhibitor, single point] | –
47 | CCNC(=S)N(CCc1c(C)[nH]c2ccc(C)cc12)Cc1ccco1 | inconclusive [inhibitor, single point] | –
48 | Cc1nc2oc(C(=O)c3ccc(Br)cc3)c(N)c2c2c1COC(C)(C)C2 | inconclusive [inhibitor, full curve] | –
49 | Cc1ccc(CN(C)C(=O)C2CCC(=O)N(CCc3ccccc3)C2)o1 (stereo not given) | inconclusive [inhibitor, partial curve, poor fit] | –
50 | Cc1cc(C(=O)N/N=C/c2cccnc2)cs1 | inconclusive [inhibitor, partial curve, poor fit] | –
51 | Cc1cccc(N(CC(=O)O)CC(=O)O)c1 | inactive | –
52 | COc1ccc(OC)c(/C=C2\Oc3cc(OCC(=O)N4CCC[C@H]4C(=O)O)ccc3C2=O)c1 | inconclusive [inhibitor, full curve, poor fit] | –
53 | COc1ccc(NC(=O)c2cc3c(s2)-c2c(C)cccc2OC3)c(OC)c1 | inactive | –
54 | COc1ccc(Br)cc1S(=O)(=O)N(CC(=O)N1CCN(C)CC1)c1ccccc1 | inconclusive [inhibitor, partial curve] | –
55 | COc1ccc(C(=O)NC(=S)Nc2ccc3oc(=O)ccc3c2)cc1 | inconclusive [inhibitor, full curve, poor fit] | –
56 | COc1ccc(S(=O)(=O)Nc2nnc(C(C)(C)C)s2)cc1 | inconclusive [inhibitor, full curve, poor fit] | –
57 | COc1ccc([C@]23Cc4cc(C#N)ccc4[C@H](O2)c2c(cc(C)n(Cc4ccccc4)c2=O)O3)cc1 | – | inactive: -13.6% [at 22.9 µM]
58 | O=C(NC(=S)NCCCN1CCOCC1)c1ccc(Br)cc1 | inactive | –
59 | CCC(CC)c1nnc(NC(=O)CCc2ccc(OC)cc2)s1 | inconclusive [inhibitor, partial curve, poor fit] | –
60 | CCc1cccc(NC(=O)c2cccc3c2C(=O)N(CC2CCCO2)C3)c1 (stereo not given) | inactive | –
61 | CCCc1nc2ccc(NC(C)=O)cc2c(=O)n1Cc1cccc(Cl)c1 | inconclusive [inhibitor, partial curve, poor fit] | –
62 | CSc1nc2ccccc2c(=O)n1C1CCCCC1 | inconclusive [inhibitor, full curve, poor fit] | –
63 | Cc1ccccc1-n1c(-c2ccoc2)nc2ccccc2c1=O | inactive | –
64 | O=c1cc(CN2CCN(c3ccccc3)CC2)nc2scc(-c3ccccc3)n12 | inactive | –
65 | N/C(=N\OC(=O)CCCCCN1C(=O)c2ccccc2C1=O)c1ccccc1 | inactive | –
